Drawing on the supplement of paper PMC10681739, this text covers ETS1 binding intensity for 63 sequences.

In all, about 2,700 sequences were measured (“arbitrary fluorescence units”: median about 4,100, highest 2% from about 54,000 on). Some of the results follow.

In the assay the target is T1, ETS1 (UniProt P14921).
T1 sequence: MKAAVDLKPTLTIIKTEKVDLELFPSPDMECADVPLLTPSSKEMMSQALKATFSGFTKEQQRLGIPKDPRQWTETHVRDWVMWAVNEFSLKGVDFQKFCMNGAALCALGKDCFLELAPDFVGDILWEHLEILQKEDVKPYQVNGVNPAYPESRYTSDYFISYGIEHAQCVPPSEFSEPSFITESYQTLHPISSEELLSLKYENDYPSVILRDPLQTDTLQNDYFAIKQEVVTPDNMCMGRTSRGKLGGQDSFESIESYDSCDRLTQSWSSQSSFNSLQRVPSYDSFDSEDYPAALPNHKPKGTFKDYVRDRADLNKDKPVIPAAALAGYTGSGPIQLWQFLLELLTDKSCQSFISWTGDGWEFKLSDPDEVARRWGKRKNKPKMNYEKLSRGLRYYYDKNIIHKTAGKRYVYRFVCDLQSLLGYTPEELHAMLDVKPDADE
Briefly: ETS1 binding intensity (PBM fluorescence) (arbitrary fluorescence units); higher = stronger binding. The settings on record: ETS1 concentration 10 nM. How it is done:
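gcPBM on wild-type 36-bp genomic probes with two neighbouring ETS1 sites (4-24 bp apart). Recombinant human ETS1 (10 nM) was detected with anti-ETS1 antibody fluorescence. Values are medians over 3 replicate spots. The probes sit in constant array flanks that are not printed.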
Consider AAGGCCCAGGAAGCCACTGCTGCAGGAAGTGTCCTG, for which the ETS1 binding intensity came to 752.

The sequence CCACTGTGGCTAAGGAAACAGGAAGCTGCCTCTCCT gave an ETS1 binding intensity of 1620.

Consider TGCCCAGGAAGGCCTCATGGCGGTACCGGAAGCTCC, for which the ETS1 binding intensity is 929.

On to TTCCAAAGCTGTTTCCTTACTTCCCTTTGTTGCTAT, for which the ETS1 binding intensity worked out at 639.

For the sequence CCTCAACTTCCTGGGCTCAAGTGGTTTTCCTGCCTC, the ETS1 binding intensity amounted to 13000.

The sequence GCGCGGGACTCGGTTCCGCGGAAATCGGAAATCGAA returned an ETS1 binding intensity of 188.

GGTAGGGCTTCCGCCCGGGGCTGCTTCCGGCCTCGG gave an ETS1 binding intensity of 17100.

Regarding GCAATAAAGGAAATGAGTAGGATTTTCCTGTGTTTT, the ETS1 binding intensity is 2430.

For the sequence CTAACGGTTTCCTCTGGGTAAGCACTTCCGCCCTCC, the ETS1 binding intensity amounted to 7030.

Take TATGTATTTCCTTATTGCAAAGGGCGGAAACGTGTA: the ETS1 binding intensity is 3980.

CAAGCGGAAGTGGGGCTGCGCTGGCGCTTCCTCTTC displayed an ETS1 binding intensity of 11700.

AGCGGAAACTACGGAAACATAGGAAAAGGGCTGACT: the ETS1 binding intensity was 1280.

The sequence CCGGAGACATCCGCCCAGGCCCGCTTCCGGGAGGAA registered an ETS1 binding intensity of 15300.

With CCCACTTCCTGCCTCACCCTGAAGATCTTCCGGGCA, the ETS1 binding intensity worked out at 56900.

For GGAAAGACGGCAGGAAATGGGGAAGTGGGAGGGAGA, the ETS1 binding intensity was found to be 6220.

Consider ATGCCAGGAAACAACAGATGCTGGAGAGGATGTGGA, for which the ETS1 binding intensity amounted to 429.

TCATTAGGCGGAAAGCGAAACCCGGAAGTGACGCTC: the ETS1 binding intensity was 4240.

Consider AACACTTCCTCTGCCTTGCAATGGGAGAGGAAGTAA, for which the ETS1 binding intensity was 15700.

The sequence GCCCACATCCGGGGCCCAGAGCGCCGCGGAAACGCC came in with an ETS1 binding intensity of 48700.

Sequence ACCACCTGGACAGGAAGACAGGATGTGAACTTCAGA yielded an ETS1 binding intensity of 4170.

Consider TTAACTCCTGGACTTCCGCTTCCGGGGTGCCCAGGC, for which the ETS1 binding intensity came out at 24900.

As for GACGGACACCCGTTTCCGCTTCCGGGTCACGCTTCT, the ETS1 binding intensity was 20900.

For ACTTGACCCGGAACCATCAGCTGTTTCCTTTCACCT, the ETS1 binding intensity came to 272.

Regarding GCGCGCCACTTCCGACCTGTGCCGGAAAAGCCCATA, the ETS1 binding intensity is 8270.

GTCACTTCCGGCGCCCGCCTACACGCACTTCCGTTC yielded an ETS1 binding intensity of 88200.

For the sequence TAACAGGAAGCATGACTGGGAGGCCTCAGGAAACTT, the ETS1 binding intensity worked out at 2750.

Consider AGTTTGAAGGCTCCGGAACTTCCGTCCTGGGAGGTT, for which the ETS1 binding intensity turned out to be 2920.

For the sequence TTTAGTTCTCTTCCTGTTTGTACATCCTTGTGGTAA, the ETS1 binding intensity was found to be 14100.

On to TCCCCAGGAAAGGAGGAGGGTGGGCCGGAAGAAAGG, for which the ETS1 binding intensity worked out at 295.

AGTTCAGAGGCCGGAAGCCCAGGAAGAGAGGGACAC gave an ETS1 binding intensity of 6000.

With TGTCAGGAAGCCACAGGGGGAGTGTGGCTTCCTGAG, the ETS1 binding intensity was 352.

CCGGCACTTCCGGCAGGCCAGGGCACTTCCGGGACC displayed an ETS1 binding intensity of 58000.

CTCTGGCATATCAGGAAATAGGAAATGATCTCACCA yielded an ETS1 binding intensity of 1170.

With GCCCTATCAGCACATCCGCAGGAAACACCTGCAGAA, the ETS1 binding intensity is 4750.

With CCAACAGGATTTAAACAGGCGGTGACAGGAAGGGGG, the ETS1 binding intensity amounted to 320.

With GCCCCAGCTTCCGGCCTCCGGCGGCTTCCGCGTCGC, the ETS1 binding intensity stood at 52900.

Consider ATTTGAAGAGCCAGGAAGGAGGAAATGCAGAGTGCA, for which the ETS1 binding intensity was determined as 287.

On to CCAAGCTGCGAAGCTTCCTTCCTGTCTTGAGGTTTC, for which the ETS1 binding intensity was 3950.

With AAGCAGGAGGAAACCGGCATGTCACTTCCTCTGCAG, the ETS1 binding intensity amounted to 1290.

For the sequence ATCTGTCAAGGAGCTTCCTTCCGTTTGTGGTTTCAT, the ETS1 binding intensity stood at 1090.

Sequence GGGAGGAAGCGCCCCGAGGAGGGTCAGCGGAACACA returned an ETS1 binding intensity of 293.

As for CGGGAGGAAGTCGGGCTCGCCGCCTGCCATCCGCGG, the ETS1 binding intensity was 1040.

Sequence CAGACCCGGAAGCCACTTACAGTAACTTCCGGCGAG came in with an ETS1 binding intensity of 14400.

CATTTACTTCCTTGCCTGTTGCGGCCTTCCTGGCTG yielded an ETS1 binding intensity of 5400.

CCACCTTCCTGCCTCATCAACTCACACCGGATTGAT displayed an ETS1 binding intensity of 7700.

As to ATGAGGAAGCAGAAACTATGAGTAAACAGGAAGCTT, the ETS1 binding intensity stood at 383.

On to TGTAGGAGCTTCCTTGCAGCCTCAGGATGCCGAATT, for which the ETS1 binding intensity was 517.

With ACGACAAGGAAGCTGAGTCAGAGAGAGGAAGTATGA, the ETS1 binding intensity was 249.

CTAAGATACAGGATGCCCTTACTTCCTGTCTGTGGC registered an ETS1 binding intensity of 11900.

CCCTGCGACTGACATCCTGCTTCCTGTGCTGCGTTT gave an ETS1 binding intensity of 13500.

Sequence CGCGCGCAGTTTCCTGGAGACCCGGAAGCAGATTAC came in with an ETS1 binding intensity of 5800.

Consider ATGTAAAGAGGAAGTGACTCATTCTTCCTGGTGGTG, for which the ETS1 binding intensity was 3720.

AGGGACCGGAACTGAATGGGAGTACCGGAAGTGCCC came in with an ETS1 binding intensity of 16100.

In turn, CACCCCACCGTTTCCTGTACCAGGAAGCTGAGGCCC registered an ETS1 binding intensity of 20600.

With ACCTCCCGGGACTTCCGGCCGGAAACCAAGGCCCCA, the ETS1 binding intensity was determined as 41300.

As for CGTCAGAGCAGGAAGTGTTTGAGGAAGTCGCGCCGC, the ETS1 binding intensity came to 5390.

The sequence ATGGAGAGGAAGCCACAGGGTTGACAGGAAACCAGA came in with an ETS1 binding intensity of 699.

ATAAACAATGAGGAAGCCAGTTTCCTGTTTGGGTTG displayed an ETS1 binding intensity of 4970.

The sequence TGGACGGAAGTCACTTCTGAGAAGGGCGGAAGTGTC had an ETS1 binding intensity of 5130.

CGCGGCCTTTCATTTCCGCTTCCGGTGCGGGCCGCG displayed an ETS1 binding intensity of 32900.

In turn, GGATGCGGAAGGTAAGGGCTGCAGGCTTCCGGGCCG returned an ETS1 binding intensity of 918.

On to CGGGACCGAGGGAGGAAGTCGGAAACTGGTGGCCGC, for which the ETS1 binding intensity worked out at 1010.

As for TGCAGGCAATGTTTCCTGCCAGGATGTTGATCAAAG, the ETS1 binding intensity was 4960.
